{"source": "PubChem BioAssay AID1345083", "about": "(National Center for Advancing Translational Sciences (NCATS), 2018)", "note": "Screen size: about 94,000 compounds; about 6,200 (6.6%) were called active. The inconclusive results got no clear call from the source; some entries with a clear call stand among them for comparison. Calls come from the whole dose curve; as a rule, active = well fitted inhibition curve with a large enough effect; inconclusive = small, poorly fitted or top-dose-only effect; inactive = flat fitted curve, though single readings scatter. Potencies beside an inconclusive call are fits to weak or partial responses and may not hold up. Potency is the fitted concentration of half-maximal effect; tags give direction and shape of the fitted curve."}
{"test": "Cytotoxic Profiling in HEK 293 Cell Line of Diverse Libraries Using Quantitative High-Throughput Screening; note: nearly all actives have a fitted effect of over 60% in size", "settings": "HEK 293 viability, ATP luminescence (CellTiter-Glo), 48-72 h; series mostly up to 115 µM", "outline": "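Viability of HEK 293 cells, plated at 250 cells/well, was judged by cellular ATP after compound treatment for 48 or 72 hr. Luminescence was imaged 10 min after CellTiter-Glo addition at room temperature.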"}
{"compound": "COc1ccc(CN2C=C(C(=O)OCc3nc(-c4cccc(F)c4)no3)C(C)=NS2(=O)=O)cc1", "Potency": "inconclusive: 39.8 µM [inhibitor, full curve, poor fit]"}
{"compound": "Cc1nc2ccccc2n1Cc1cc(C(=O)N(C)CCOc2ccccc2)n[nH]1", "Potency": "inconclusive: 31.6 µM [inhibitor, full curve]"}
{"compound": "CN1C[C@H](NC(=O)c2cccnc2)CCC[C@@H](C(=O)NCc2cc(F)cc(F)c2)CC1=O", "Potency": "inactive"}
{"compound": "COc1ccc(OC)c(S(=O)(=O)N2CCc3nc(-c4ccccc4)[nH]c3C2)c1", "Potency": "inconclusive: 89.1 µM [inhibitor, single point]"}
{"compound": "CC(=O)Nc1ccc(C(=O)NC[C@@H]2C=C(C)[C@H](CC(=O)NC3CCCC3)C[C@H]2C(C)C)cc1", "Potency": "inconclusive: 44.7 µM [inhibitor, partial curve, poor fit]"}
{"compound": "CC1(c2noc(C3(C)CCOCC3)n2)CCNCC1", "Potency": "inactive"}
{"compound": "N#Cc1ccccc1CN1CCNc2nc(CNCc3cnccn3)n(Cc3ccccc3)c2C1=O", "Potency": "inactive"}
{"compound": "CN1CC(C(=O)N2CCC(Cc3ccccc3)CC2)NC1=O", "note": "(configuration not stated)", "Potency": "inactive"}
{"compound": "O=C(NCc1cccs1)[C@@H]1CCCN1c1nccc(Nc2ccccc2Cl)n1", "Potency": "inconclusive: 44.7 µM [inhibitor, partial curve, poor fit]"}
{"compound": "CCc1ccc(C2CC(C(=O)NCc3ccco3)CN(C(=O)c3ccc(F)cc3)C2)cc1", "note": "(configuration not stated)", "Potency": "inconclusive: 50.1 µM [inhibitor, partial curve, poor fit]"}
{"compound": "C[C@H](O)c1onc(-c2ccc(F)cc2)c1C(=O)NC1CCCC1", "Potency": "inactive"}
{"compound": "CCOC(=O)C1(Cc2ccc(F)cc2F)CCCN(Cc2cccc(OC)c2O)C1", "note": "(configuration not stated)", "Potency": "active: 39.8 µM"}
{"compound": "CNC(=O)c1cccc(-c2cnc(Nc3cccnc3)c3c2CCO3)c1", "Potency": "inconclusive: 100 µM [inhibitor, partial curve]"}
{"compound": "Cc1ccccc1CN1CCc2ncc(C(=O)NCCC(C)C)n2CC1", "Potency": "inconclusive: 100 µM [inhibitor, partial curve]"}
{"compound": "COCCNC(=O)CCCN1C(=O)COc2ccc(C(=O)COc3ccc(Cl)cc3C)cc21", "Potency": "inconclusive: 44.7 µM [inhibitor, partial curve, poor fit]"}
{"compound": "Cc1noc(-c2ccccc2Cl)c1C(=O)NCCCc1ccccc1", "Potency": "active: 44.7 µM"}
{"compound": "CC1(C)CN(C(=O)c2ccc(CSc3ccccn3)cc2)CC1(C)O", "note": "(configuration not stated)", "Potency": "inconclusive: 56.2 µM [inhibitor, partial curve, poor fit]"}
{"compound": "COc1cc(Nc2nc(-c3ccccc3)no2)cc(OC)c1OC", "Potency": "inconclusive: 44.7 µM [inhibitor, partial curve, poor fit]"}
{"compound": "CN1CCOc2c(C(=O)NCCc3ccccc3)cc(N3CCOCC3)cc21", "Potency": "inconclusive: 112 µM [inhibitor, single point]"}
{"compound": "COc1ccc(Cl)cc1N1C(=O)[C@@H]2C[C@@H](NC(=O)Cc3cccs3)CCN2C1=O", "Potency": "inactive"}
{"compound": "COc1cccc(-c2cccc(CN3CCCC3C(=O)N3CCCC(C)C3)c2)c1", "note": "(configuration not stated)", "Potency": "active: 50.1 µM"}
{"compound": "CN1CCN(C(=O)C(C)(C)Oc2nn(Cc3cccc(Cl)c3)c3ccccc23)CC1", "Potency": "active: 70.8 µM"}
{"compound": "CN1CCCN(C[C@@H]2CN(C(=O)CCn3cccn3)C[C@@H]2CO)CC1", "Potency": "inactive"}
{"compound": "CN1CCC(N(C)CC2CCCN(CCc3ccc(F)cc3)C2)CC1", "note": "(configuration not stated)", "Potency": "inconclusive: 15.8 µM [inhibitor, full curve, poor fit]"}
{"compound": "OC1CCN(c2cc(C3CC(Nc4ncnc5sccc45)C3)ncn2)C1", "note": "(configuration not stated)", "Potency": "inconclusive: 31.6 µM [inhibitor, partial curve, poor fit]"}
{"compound": "CC(C)CC(=O)N1C[C@@H]2CCCN3CCC[C@@H]([C@H]23)[C@H]1CCCC(=O)N1CCOCC1", "Potency": "inactive"}
{"compound": "Cc1cn2nc(C(=O)NCc3cc(F)cc(F)c3)cc2c(N(C)Cc2ccccc2)n1", "Potency": "inconclusive: 31.6 µM [inhibitor, full curve]"}
{"compound": "O=C(NCc1ccco1)N1CCc2nc3cc(-c4ccccc4Cl)[nH]n3c(=O)c2C1", "Potency": "inconclusive: 50.1 µM [inhibitor, partial curve, poor fit]"}
{"compound": "N#Cc1cccc(-c2ccnc(N[C@H]3CO[C@H]4[C@@H]3OC[C@H]4OC(=O)Nc3cccc4ccccc34)n2)c1", "Potency": "active: 22.4 µM"}
{"compound": "CCNC(=O)NC[C@@H]1C=C(C)[C@H](Cc2nnc(-c3cncn3C)o2)C[C@H]1C(C)C", "Potency": "inactive"}
{"compound": "COc1ccccc1CNC(=O)C1CCN(c2nccc(Nc3ccccc3F)n2)CC1", "Potency": "inconclusive: 22.4 µM [inhibitor, full curve, poor fit]"}
{"compound": "CC(=O)Nc1cccc(-c2cn(C)c(=O)n3cc(COc4ccc(Cl)cc4)nc23)c1", "Potency": "inconclusive: 126 µM [inhibitor, single point]"}
{"compound": "COc1ccccc1N1CCN(c2ncncc2-c2nc(-c3ccccc3)no2)CC1", "Potency": "inconclusive: 12.6 µM [inhibitor, partial curve, poor fit]"}
{"compound": "O=C(N[C@@H]1CN(Cc2cccc(OC(F)(F)F)c2)CC[C@@H]1CO)c1ccccc1", "Potency": "inconclusive: 56.2 µM [inhibitor, partial curve, poor fit]"}
{"compound": "CC(C)(C)CC(=O)NC[C@H]1OC[C@@H](N(Cc2ccccc2)Cc2ccccc2)[C@@H]1O", "Potency": "inconclusive: 112 µM [inhibitor, partial curve, poor fit]"}
{"compound": "COc1cc2c(cc1OC)C(CNC(=O)C(C)C)N(C(=O)Nc1ccc(C)cc1)CC2", "note": "(configuration not stated)", "Potency": "inconclusive: 70.8 µM [inhibitor, single point]"}
{"compound": "Cc1nc(C2CC(O)C2)cc(N2CC(N3CCOCC3)C2)n1", "note": "(configuration not stated)", "Potency": "inactive"}
{"compound": "Cc1cc(C)c(CNC(=O)c2nc(-c3ccc(CN(C)C)cc3)cc3c2ccn3C(C)C)c(=O)[nH]1", "Potency": "inconclusive: 22.4 µM [inhibitor, full curve, poor fit]"}
{"compound": "COCCn1c(=O)c(C(=O)NCCc2ccc(Cl)cc2)nc2cccnc21", "Potency": "inconclusive: 79.4 µM [inhibitor, partial curve]"}
{"compound": "COC(=O)c1cccc(CNCC2=CC(C)(C)COc3ccc(OC)cc32)c1", "Potency": "inconclusive: 44.7 µM [inhibitor, partial curve, poor fit]"}
{"compound": "CCCCCNC(=O)c1cc(-c2ccc(F)cc2)nc2c1cnn2C", "Potency": "inconclusive: 79.4 µM [inhibitor, partial curve, poor fit]"}
{"compound": "CC(C)NC(=O)NC1CCN(c2ccc3nnc(-c4ccccc4)n3n2)CC1", "Potency": "inactive"}
{"compound": "O=C(NC1CCN(c2cc(-c3ccc(F)cc3)[nH]n2)CC1)c1cccc(F)c1", "Potency": "inconclusive: 31.6 µM [inhibitor, full curve]"}
{"compound": "COc1nccc(N2CCC(CC(=O)NCc3cccs3)CC2)n1", "Potency": "inconclusive: 8.91 µM [inhibitor, partial curve, poor fit]"}
{"compound": "CCC(=O)N1CCC(CC)(N2CCN(S(=O)(=O)c3cccc(C(F)(F)F)c3)CC2)C1", "note": "(configuration not stated)", "Potency": "inconclusive: 89.1 µM [inhibitor, single point]"}
{"compound": "COc1ccc(CN2CCCC3(C2)NC(=O)c2ccccc2O3)cc1", "note": "(configuration not stated)", "Potency": "inactive"}
{"compound": "CCOc1ccc(C(=O)N2CCCN(c3cc(-c4ccc(Cl)cc4)[nH]n3)CC2)cc1OCC", "Potency": "inconclusive: 31.6 µM [inhibitor, partial curve, poor fit]"}
{"compound": "C[C@@H](c1ccccc1)N1C(=O)[C@@H]2CN(C(=O)c3ccco3)CCN2C1=O", "Potency": "inactive"}
{"compound": "CSCC[C@@H]1NC(=O)c2cc(NC(=O)CCc3ccc4c(c3)CCO4)ccc2NC1=O", "Potency": "inconclusive: 10 µM [inhibitor, full curve, poor fit]"}
{"compound": "CCNC(=O)N1CCC(Cc2ccc(C(=O)N3CCN(c4ccccc4)CC3)cc2)CC1", "Potency": "inconclusive: 50.1 µM [inhibitor, partial curve, poor fit]"}
{"compound": "COc1ccccc1-c1ccc(C(=O)N2CCC(N[S+](=O)([O-])c3c(C)noc3C)CC2)cc1", "Potency": "inconclusive: 89.1 µM [inhibitor, partial curve, poor fit]"}
{"compound": "Cc1ccc(NC(=O)C2CC(=O)Nc3ncnn32)cc1", "note": "(configuration not stated)", "Potency": "inactive"}
{"compound": "c1cncc(COc2cc3c(cn2)NCCN(Cc2ccsc2)C3)c1", "Potency": "inconclusive: 100 µM [inhibitor, partial curve]"}
{"compound": "COC1C(=O)N(C2CCN(C(=O)c3cc4ccccc4[nH]3)CC2)C12CCOCC2", "note": "(configuration not stated)", "Potency": "inconclusive: 89.1 µM [inhibitor, single point]"}
{"compound": "CCN1c2cc(C(=O)Nc3ccc(C(C)C)cc3)ccc2C(=O)N2CCCCC21", "note": "(configuration not stated)", "Potency": "active: 17.8 µM"}
{"compound": "CCOc1ccc(OCC)c(NC(=O)CCn2ccn3nc4c(c3c2=O)CCCC4)c1", "Potency": "inconclusive: 89.1 µM [inhibitor, single point]"}
{"compound": "O=C(CCc1ccccc1)N1CCN(c2cc(-c3cccs3)[nH]n2)CC1", "Potency": "inconclusive: 79.4 µM [inhibitor, single point]"}
{"compound": "O=C(c1cc2c(s1)CCC(C(=O)N1CCN(c3ccccc3)CC1)C2)N1CCOCC1", "note": "(configuration not stated)", "Potency": "inconclusive: 79.4 µM [inhibitor, partial curve, poor fit]"}
{"compound": "Cc1cc(C)c(C#N)c(-c2ccc(C(C)N3CCOCC3)cc2)n1", "note": "(configuration not stated)", "Potency": "inconclusive: 50.1 µM [inhibitor, partial curve, poor fit]"}
{"compound": "Cc1cnc(C(=O)N(C)C2CCc3nnc(C)n3CC2)cn1", "note": "(configuration not stated)", "Potency": "inconclusive: 89.1 µM [inhibitor, single point]"}
{"compound": "Cc1nc2cccnc2n1CC1CCCN(S(=O)(=O)c2cccc(Cl)c2)C1", "note": "(configuration not stated)", "Potency": "inconclusive: 44.7 µM [inhibitor, partial curve, poor fit]"}
{"compound": "COc1cccc(C(=O)N(CC(C)C)CC2CN(C(=O)Nc3ccccc3)CCO2)c1", "note": "(configuration not stated)", "Potency": "inconclusive: 100 µM [inhibitor, single point]"}
